Reference: the supplement of paper PMC8728848
This is one part of the list.

Experiments:
Experiment in all cases: glycan array binding signal (z-score within array); higher = stronger binding
Settings in all cases: glycan notation: IUPAC condensed, linker removed
[1] = biological target: Neu5Ac(a2-6)Gal(b1-4)GlcNAc(b1-2)Man(a1-3)[GlcNAc(b1-4)][Neu5Ac(a2-6)Gal(b1-4)GlcNAc(b1-2)Man(a1-6)]Man(b1-4)GlcNAc(b1-4)GlcNAc
Method in brief: (§1)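 Negative Z-scores can be read as non-binding. The Z-score is calculated within each array and then averaged across arrays of one protein sequence at different concentrations or buffers and across linkers. Arrays, 3228 in all, were curated from the Consortium for Functional Glycomics database and kept only where the protein sequence was available.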

[2] = biological target: Neu5Ac(a2-6)Gal(b1-4)GlcNAc(b1-2)Man(a1-3)[Man(a1-6)]Man(b1-4)GlcNAc(b1-4)GlcNAc
Method in brief: as §1

[3] = biological target: Neu5Ac(a2-6)Gal(b1-4)GlcNAc(b1-2)Man(a1-3)[Neu5Ac(a2-3)Gal(b1-4)GlcNAc(b1-2)Man(a1-6)]Man(b1-4)GlcNAc(b1-4)GlcNAc
Method in brief: as §1

[4] = biological target: Neu5Ac(a2-6)Gal(b1-4)GlcNAc(b1-2)Man(a1-3)[Neu5Ac(a2-6)Gal(b1-4)GlcNAc(b1-2)Man(a1-6)]Man(b1-4)GlcNAc(b1-4)GlcNAc
Method in brief: as §1

[5] = biological target: Neu5Ac(a2-6)Gal(b1-4)GlcNAc(b1-2)Man(a1-3)[Neu5Ac(a2-6)Gal(b1-4)GlcNAc(b1-2)Man(a1-6)]Man(b1-4)GlcNAc(b1-4)[Fuc(a1-6)]GlcNAc
Method in brief: as §1

[6] = biological target: Neu5Ac(a2-6)Gal(b1-4)GlcNAc(b1-2)Man(a1-6)Man(b1-4)GlcNAc(b1-4)GlcNAc
Method in brief: as §1

[7] = biological target: Neu5Ac(a2-6)Gal(b1-4)GlcNAc(b1-2)Man(a1-6)[Gal(b1-4)GlcNAc(b1-2)Man(a1-3)]Man(b1-4)GlcNAc(b1-4)GlcNAc
Method in brief: as §1

[8] = biological target: Neu5Ac(a2-6)Gal(b1-4)GlcNAc(b1-2)Man(a1-6)[GlcNAc(b1-2)Man(a1-3)]Man(b1-4)GlcNAc(b1-4)GlcNAc
Method in brief: as §1

[9] = biological target: Neu5Ac(a2-6)Gal(b1-4)GlcNAc(b1-2)Man(a1-6)[Man(a1-3)]Man(b1-4)GlcNAc(b1-4)GlcNAc
Method in brief: as §1

[10] = biological target: Neu5Ac(a2-6)Gal(b1-4)GlcNAc(b1-2)[Neu5Ac(a2-6)Gal(b1-4)GlcNAc(b1-4)]Man(a1-3)[GlcNAc(b1-4)][Neu5Ac(a2-6)Gal(b1-4)GlcNAc(b1-2)[Neu5Ac(a2-6)Gal(b1-4)GlcNAc(b1-6)]Man(a1-6)]Man(b1-4)GlcNAc(b1-4)GlcNAc
Method in brief: as §1

[11] = biological target: Neu5Ac(a2-6)Gal(b1-4)GlcNAc(b1-2)[Neu5Ac(a2-6)Gal(b1-4)GlcNAc(b1-4)]Man(a1-3)[GlcNAc(b1-4)][Neu5Ac(a2-6)Gal(b1-4)GlcNAc(b1-4)Man(a1-6)]Man(b1-4)GlcNAc(b1-4)GlcNAc
Method in brief: as §1

[12] = biological target: Neu5Ac(a2-6)Gal(b1-4)GlcNAc(b1-2)[Neu5Ac(a2-6)Gal(b1-4)GlcNAc(b1-6)]Man(a1-6)[Neu5Ac(a2-6)Gal(b1-4)GlcNAc(b1-2)Man(a1-3)][GlcNAc(b1-4)]Man(b1-4)GlcNAc(b1-4)GlcNAc
Method in brief: as §1

[13] = biological target: Neu5Ac(a2-6)Gal(b1-4)GlcNAc(b1-3)Gal(b1-3)GlcNAc
Method in brief: as §1

[14] = biological target: Neu5Ac(a2-6)Gal(b1-4)GlcNAc(b1-3)Gal(b1-4)GlcNAc
Method in brief: as §1

[15] = biological target: Neu5Ac(a2-6)Gal(b1-4)GlcNAc(b1-3)Gal(b1-4)GlcNAc(b1-2)Man(a1-3)[Neu5Ac(a2-6)Gal(b1-4)GlcNAc(b1-3)Gal(b1-4)GlcNAc(b1-2)Man(a1-6)]GalNAc
Method in brief: as §1

[16] = biological target: Neu5Ac(a2-6)Gal(b1-4)GlcNAc(b1-3)Gal(b1-4)GlcNAc(b1-3)Gal(b1-4)GlcNAc
Method in brief: as §1

[17] = biological target: Neu5Ac(a2-6)Gal(b1-4)GlcNAc(b1-3)Gal(b1-4)GlcNAc(b1-3)Gal(b1-4)GlcNAc(b1-2)Man(a1-3)[Neu5Ac(a2-6)Gal(b1-4)GlcNAc(b1-3)Gal(b1-4)GlcNAc(b1-3)Gal(b1-4)GlcNAc(b1-2)Man(a1-6)]GalNAc
Method in brief: as §1

[18] = biological target: Neu5Ac(a2-6)Gal(b1-4)GlcNAc(b1-3)Gal(b1-4)GlcNAc(b1-3)GalNAc
Method in brief: as §1

[19] = biological target: Neu5Ac(a2-6)Gal(b1-4)GlcNAc(b1-3)Gal(b1-4)GlcNAc(b1-3)[Neu5Ac(a2-6)Gal(b1-4)GlcNAc(b1-3)Gal(b1-4)GlcNAc(b1-6)]GalNAc
Method in brief: as §1

[20] = biological target: Neu5Ac(a2-6)Gal(b1-4)GlcNAc(b1-3)Gal(b1-4)GlcNAc(b1-6)[Gal(b1-3)]GalNAc
Method in brief: as §1

[21] = biological target: Neu5Ac(a2-6)Gal(b1-4)GlcNAc(b1-3)Gal(b1-4)[Fuc(a1-3)]GlcNAc(b1-3)Gal(b1-4)[Fuc(a1-3)]GlcNAc
Method in brief: as §1

[22] = biological target: Neu5Ac(a2-6)Gal(b1-4)GlcNAc(b1-3)GalNAc
Method in brief: as §1

[23] = biological target: Neu5Ac(a2-6)Gal(b1-4)GlcNAc(b1-3)[Neu5Ac(a2-6)Gal(b1-4)GlcNAc(b1-6)]GalNAc
Method in brief: as §1

[24] = biological target: Neu5Ac(a2-6)Gal(b1-4)GlcNAc(b1-6)GalNAc
Method in brief: as §1

[25] = biological target: Neu5Ac(a2-6)Gal(b1-4)GlcNAc(b1-6)[Gal(b1-3)GlcNAc(b1-3)]Gal(b1-4)Glc
Method in brief: as §1

[26] = biological target: Neu5Ac(a2-6)Gal(b1-4)GlcNAc(b1-6)[Gal(b1-3)]GalNAc
Method in brief: as §1

[27] = biological target: Neu5Ac(a2-6)Gal(b1-4)GlcNAc6S
Method in brief: as §1

Neu5Ac(a2-6)GalNAc = biological target: Neu5Ac(a2-6)GalNAc
Method in brief: as §1

[28] = biological target: Neu5Ac(a2-6)GalNAc(b1-4)GlcNAc
Method in brief: as §1

[29] = biological target: Neu5Ac(a2-6)GalNAc(b1-4)GlcNAc6S
Method in brief: as §1

[30] = biological target: Neu5Ac(a2-6)GlcNAc(b1-4)GlcNAc
Method in brief: as §1

B1: Als3-41 (Candida albicans) (protein)
chain: KTITGVFNSFNSLTWSNAATYNYKGPGTPTWNAVLGWSLDGTSASPGDTFTLNMPCVFKFTTSQTSVDLTAHGVKYATCQFQAGEEFMTFSTLTCTVSNTLTPSIKALGTVTLPLAFNVGGTGSSVDLEDSKCFTAGTNTVTFNDGGKKISINVDFERSNVDPKGYLTDSRVIPSLNKVSTLFVAPQCANGYTSGTMGFANTYGDVQIDCSNIHVGITKGLNDWNYPVSSESFSYTKTCSSNGIFITYKNVPAGYRPFVDAYISATDVNSYTLSYANEYTCAGGYWQRAPFTLRWTGYRNSDAGSNGIVIVATTRTVTDSTTAVTTLPFDPNRDKTKTIEILKPIPTTTITTSYVGVTTSYLTKTAPIGETATVIVD
glycan array binding signal (z-score) [1]: -0.323
glycan array binding signal (z-score) [2]: -0.268
glycan array binding signal (z-score) [3]: -0.13
glycan array binding signal (z-score) [4]: -0.063
glycan array binding signal (z-score) [5]: -0.322
glycan array binding signal (z-score) [6]: -0.308
glycan array binding signal (z-score) [7]: -0.305
glycan array binding signal (z-score) [8]: -0.222
glycan array binding signal (z-score) [9]: -0.365
glycan array binding signal (z-score) [10]: -0.236
glycan array binding signal (z-score) [11]: -0.219
glycan array binding signal (z-score) [12]: -0.261
glycan array binding signal (z-score) [13]: -0.274
glycan array binding signal (z-score) [14]: -0.253
glycan array binding signal (z-score) [15]: 1.22
glycan array binding signal (z-score) [16]: -0.239
glycan array binding signal (z-score) [17]: 1.53
glycan array binding signal (z-score) [18]: 0.145
glycan array binding signal (z-score) [19]: 0.35
glycan array binding signal (z-score) [20]: -0.208
glycan array binding signal (z-score) [21]: -0.164
glycan array binding signal (z-score) [22]: 0.421
glycan array binding signal (z-score) [23]: -0.12
glycan array binding signal (z-score) [24]: 0.026
glycan array binding signal (z-score) [25]: -0.325
glycan array binding signal (z-score) [26]: 0.534
glycan array binding signal (z-score) [27]: -0.197
glycan array binding signal (z-score) (Neu5Ac(a2-6)GalNAc): -0.191
glycan array binding signal (z-score) [28]: -0.311
glycan array binding signal (z-score) [29]: 0.088
glycan array binding signal (z-score) [30]: -0.311
